Data as given in publication PMC4336329 (PLoS ONE, 2015).
Among all 310,000 compounds or so, about 14,000 (4.5%) showed an effect of 50% or more. Effects have a minus sign here. Some of the results follow.

These molecules were tested against human ether-à-go-go-related gene (hERG) potassium channel (human, UniProt Q12809) (assay: primary screen, population patch clamp on CHO cells stably expressing hERG).
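Note: peak tail current of the secondary pulse compared with the same well before compound.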

Chain of human ether-à-go-go-related gene (hERG) potassium channel (Q12809 whole entry, looked up): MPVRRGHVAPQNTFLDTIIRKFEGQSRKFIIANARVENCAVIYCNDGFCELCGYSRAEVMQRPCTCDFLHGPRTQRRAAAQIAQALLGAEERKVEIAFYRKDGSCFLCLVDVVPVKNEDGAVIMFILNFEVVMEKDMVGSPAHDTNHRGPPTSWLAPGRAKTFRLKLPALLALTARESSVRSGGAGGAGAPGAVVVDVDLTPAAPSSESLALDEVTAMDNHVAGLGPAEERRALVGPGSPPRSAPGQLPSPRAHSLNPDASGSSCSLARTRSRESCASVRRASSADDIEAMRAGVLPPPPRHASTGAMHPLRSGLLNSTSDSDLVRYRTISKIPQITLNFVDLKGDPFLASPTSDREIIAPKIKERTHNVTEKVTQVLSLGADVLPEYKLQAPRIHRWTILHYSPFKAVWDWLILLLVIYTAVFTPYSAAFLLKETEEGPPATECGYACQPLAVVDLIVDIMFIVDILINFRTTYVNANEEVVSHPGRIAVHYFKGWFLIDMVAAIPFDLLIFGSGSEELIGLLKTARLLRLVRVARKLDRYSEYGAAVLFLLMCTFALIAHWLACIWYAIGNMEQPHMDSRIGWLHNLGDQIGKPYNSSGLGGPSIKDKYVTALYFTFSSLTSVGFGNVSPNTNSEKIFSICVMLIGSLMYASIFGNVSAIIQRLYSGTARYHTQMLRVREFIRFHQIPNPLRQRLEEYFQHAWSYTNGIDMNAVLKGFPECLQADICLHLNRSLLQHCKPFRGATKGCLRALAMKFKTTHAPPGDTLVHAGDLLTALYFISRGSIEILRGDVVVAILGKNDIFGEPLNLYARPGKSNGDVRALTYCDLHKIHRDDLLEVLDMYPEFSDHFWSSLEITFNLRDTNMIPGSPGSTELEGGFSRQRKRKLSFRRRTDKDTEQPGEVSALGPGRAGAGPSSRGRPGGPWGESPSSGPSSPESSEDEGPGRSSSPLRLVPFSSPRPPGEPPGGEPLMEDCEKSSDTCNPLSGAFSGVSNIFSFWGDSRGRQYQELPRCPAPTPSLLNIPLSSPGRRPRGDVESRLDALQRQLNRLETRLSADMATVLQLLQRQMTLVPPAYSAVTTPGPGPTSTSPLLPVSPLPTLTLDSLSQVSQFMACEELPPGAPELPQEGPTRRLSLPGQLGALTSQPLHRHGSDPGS

Row | Compound | hERG current change (%, negative = inhibition) at 10uM [%]
1 | COc1ccc(CC2(CO)CCN(C(C)Cc3ccc(Cl)cc3)CC2)cc1 (centres unmarked) | -80.4
2 | CCn1cc(CN2CCC(C(=O)Nc3ccc(Oc4ccccc4F)cc3)CC2)c(C)n1 | -72.9
3 | CCN(Cc1ccccc1)Cc1c(C)[nH]c2c(C)c(C)ccc2c1=O | -40.6
4 | CCC(=O)N1N=C2C3CCN(CC3)C2C1c1ccccc1 (centres unmarked) | -30.3
5 | Oc1nc(Nc2ccc(F)cc2)sc1/C=C1\C=Nc2ccccc21 | 7.84
6 | O=C(O)COCC(=O)NCc1csc2ccccc12 | 2.75
7 | COc1ccc(C2(c3ccc(OC)cc3)NC(=O)N(CC(=O)Nc3cc(C)ccc3OC)C2=O)cc1 | 3.34
8 | COc1cc(OC)cc(-n2nnnc2SCC(=O)NCc2cccs2)c1 | -9.05
9 | O=C(c1ccccc1)c1ccc2ccccc2n1 | -1.71
10 | O=C1C2N=NN(CC(=O)N3N=C(c4ccccc4)CC3c3ccc([N+](=O)[O-])cc3)C2C(=O)N1c1ccccc1 (centres unmarked) | -8.49
11 | O=C(CN1C(=O)C2C3CCC(C3)C2C1=O)NCc1ccco1 (centres unmarked) | 24.2
12 | COc1cc(/C=C2\CCn3c2nc2cc(C(=O)O)ccc2c3=O)ccc1OC(F)F | 20.1
13 | CN1C(=O)CCC(CCC(=O)O)(c2ccccc2O)C1=O (centres unmarked) | 20.8
14 | Cc1ccc(S(=O)(=O)N(C)CC(=O)Oc2ccc(-c3nnco3)cc2)cc1 | 9.31
15 | CC(C)(C)n1nnnc1CN1CCN(C(c2ccccc2)c2ccccc2)CC1 | -8.48
16 | O=C(NCCOc1nc(N2CCCCC2)nc(N2CCCCC2)n1)Nc1ccccc1 | 25.5
17 | COc1ccccc1C#Cc1ccc2c(=O)c3ccccc3n(C)c2c1 | 9.32
18 | CCOC(=O)c1c(-c2ccc(C)o2)csc1NC(=O)COC(=O)c1ccc(NC(N)=O)cc1 | -20.2
19 | CC(C)(C)c1ccc(C(=O)O)c(C(=O)c2ccccc2)c1 | -5.46
20 | COc1cc(/C=N/N2C(=O)C3C4C=CC(CC4)C3C2=O)ccc1O (centres unmarked) | 8.42
21 | COc1ccc(S(=O)(=O)N2Cc3ccccc3CC2C(=O)O)cc1 (centres unmarked) | -13.1
22 | O=C(NCCN1CCCCC1)c1ccc2c(c1)OCCO2 | 5.6
23 | O=C(O)c1ccc(COc2ccc(Cl)cc2)o1 | 15

Row | Compound | hERG current change (%, negative = inhibition) at 10uM [%]
24 | O=C1C2=C(CCCC2)C(=O)N1CNc1ccccc1 | 16.3
25 | Cc1ccccc1-c1nc(CS(=O)(=O)CC(=O)N2CCN(C)CC2)c(C)o1 | 2.73
26 | Cn1cnc([N+](=O)[O-])c1Sc1ncccc1N | -1.61
27 | CCOC(=O)c1ccc(C(=O)NNC(=O)C2C3C=CC(C3)C2C(=O)O)cc1 (centres unmarked) | 16
28 | CCCn1c(SCC(=O)c2cc(C)n(-c3ccc4c(c3)OCO4)c2C)n[nH]c1=O | -12.2
29 | COc1ccc(C(=O)NC(=S)Nc2ccc(Cc3ccncc3)cc2)cc1 | 15
30 | O=C(NCCN1CCOCC1)c1cc(-c2cccs2)on1 | -13
31 | COc1cc2ccc(=O)oc2cc1OCC(O)C(C)(C)O (centres unmarked) | -3.54
32 | C=CCc1ccc(OCCCCCN2CCOCC2)c(OC)c1.O=C(O)C(=O)O | -18.1
33 | c1csc(-c2nn3cnnc3c3ccccc23)c1 | -15.9
34 | COc1ccc(OC)c([N+](=O)[O-])c1C(N)=O | 14.4
35 | O=C(O)c1cc(-c2ccccc2)n(-c2ccccc2C(=O)O)n1 | 10.9
36 | CCOC(=O)N1CCN(C(=O)c2ccc3c(c2)N(Cc2ccccc2)CCS3)CC1 | -37.3
37 | COc1cc(NC(=O)Nc2ccc(C)cc2)cc([N+](=O)[O-])c1 | 1.05
38 | O=S(=O)(Nc1cc(Sc2cccc3cccnc23)c(O)c2ccccc12)c1ccc(F)cc1 | 5.3
39 | CC(C)CCn1nc(C(=O)Nc2nc3c(s2)CCCC3)c2ccccc2c1=O | 9.74
40 | COc1ccc(OC)c(/C=N/NC(=O)c2cc(-c3ccc(C)o3)nc3ccccc23)c1 | 16.7
41 | COc1ccc(NC2(c3ccccc3)OC(=O)c3ccccc32)cc1 (centres unmarked) | 1.2
42 | COc1ccc(Cl)cc1NC(=O)CNc1ccc(F)cc1C | 8.07
43 | CC12CCC(C(=O)N(NC(=O)c3ccc(O)cc3)C1=O)C2(C)C (centres unmarked) | 20.9
44 | COc1ccc(N(CC(=O)Nc2cc(Cl)ccc2OC)C2=NC3CS(=O)(=O)CC3S2)cc1 (centres unmarked) | -7.35
45 | CC(C)Nc1nc(NC(C)C)nc(Oc2ccc(=O)n(C)n2)n1 | 13.3
46 | COc1cccc(OCc2nnc(SCC(=O)NCc3ccco3)n2C)c1 | -0.586

Row | Compound | hERG current change (%, negative = inhibition) at 10uM [%]
47 | O=C(COc1ccc(Cl)cc1Cl)NCC(=O)N/N=C/c1c[nH]c2ccccc12 | 20.7
48 | CN(CC(=O)Nc1ccccc1Cl)C(=O)COC(=O)/C=C/c1cccc(C(F)(F)F)c1 | 12.7
49 | CCOC(=O)Cn1c(CN2CCc3ccccc3C2)nc2c1c(=O)n(C)c(=O)n2C | -17
50 | CC1CC(=O)NN1C(=O)c1ccccc1 (centres unmarked) | 3.33
51 | O=S(=O)(Nc1cccc(-c2ccc(N3CCCCCC3)nn2)c1)c1cccc(F)c1 | 16.3
52 | CC(C)C[C@H](CO)Nc1nc(N(C)c2cccc(Cl)c2)c2ncn(C(C)C)c2n1 | -7.87
53 | O=C(NCC(=O)N1CCN(c2ccccc2O)CC1)c1ccc2c(c1)OCO2 | 1.48
54 | Cc1nn(C)c(C(=O)Nc2ccn(Cc3ccccc3F)n2)c1[N+](=O)[O-] | -12.6
55 | Cc1ccc(NC(=O)NC2CC(=O)N(c3ccc4c(c3)OCCO4)C2)c(C)c1 (centres unmarked) | 1.86
56 | Cc1oc2c(c(C)cc3oc(=O)c(CC(=O)NCC(=O)NCC(=O)NCC(C)O)c(C)c32)c1C (centres unmarked) | 9.64
57 | CS(=O)(=O)NCc1ccc(C(=O)NC2CCCCC2)cc1 | 7.73
58 | O=C(NCc1ccccn1)c1ccc(Cl)c(S(=O)(=O)N2CCOCC2)c1 | -4.89
59 | CSc1nsc(SCC(=O)Nc2ccccc2F)n1 | 4.23
60 | COc1cccc2c(=O)n(CC(=O)NC3CCCCC3)ccc12 | 5.95
61 | O=C(O)CCn1[nH]c(=O)ccc1=O | 18.1
62 | CCCC(=O)N1CCC(O)(c2cccc(F)c2)CC1 | 10.7
63 | c1ccc2c(NCCc3c[nH]c4ccccc34)c3ccccc3nc2c1 | -74.7
64 | CC(=O)COC(=O)C1CC(=O)N(c2ccc(C)c(C)c2)C1 (centres unmarked) | 9.67
65 | CCN(CC)CC(=O)Nc1c(C#N)cnn1-c1ccccc1 | 18.7
66 | CCN(CC)c1ccc(NC(=O)COC(=O)C23CCC(=O)N2c2ccccc2S3)cc1 (centres unmarked) | -2.01
67 | O=C(NCc1ccccc1)C(Cc1ccccc1)NS(=O)(=O)c1cccc2nsnc12 (centres unmarked) | -18.5
68 | COc1ccc(Nc2nc(NCCO)nc(OC)n2)cc1 | 11.1
69 | OCCNc1ncnc2c1c(-c1ccccc1)c(-c1ccccc1)n2Cc1ccco1 | -44.9

Row | Compound | hERG current change (%, negative = inhibition) at 10uM [%]
70 | Cn1ncc2c(NNC(=O)Cc3cccc4ccccc34)ncnc21 | -10.7
71 | CCc1cc(Cn2nc(-c3ccccc3)cc2C(=O)NCCOC)on1 | -9.96
72 | Brc1ccc2c(c1)C(C1=NCCN1)c1ccccc1CS2.O=C(O)/C=C\C(=O)O (centres unmarked) | -20.3
73 | COc1ccc(C(=O)NCCS(=O)(=O)NCc2ccccc2)cc1 | 0.236
74 | CCOC(=O)C(C(=O)Nc1ccccc1C)C1CCCCC1 (centres unmarked) | 25.8
75 | CCn1nc(C)c(NC(=O)/C=C/c2cnn(C)c2C)c1C | -4.38
76 | CCOC(=O)Cn1cc(Cl)cc(C(=O)Nc2ccccc2)c1=O | -19.2
77 | Cc1cc(C(=O)NC(C)C2CCCO2)c(C)o1 (centres unmarked) | 17.7
78 | O=C1CC(c2ccc(O)c(O)c2)Oc2c1ccc(O)c2O (centres unmarked) | 2.09
79 | O=C(NNS(=O)(=O)c1ccccc1)c1ccc(F)cc1 | 12.3
80 | O=[N+]([O-])c1cccc(-c2ccc(C(=S)N3CCN(c4ccc(F)cc4)CC3)o2)c1 | 2.61
81 | COc1ccc(CNC(=O)Cn2nnc(-c3ccc(NC(=O)C4CCCCC4)cc3)n2)cc1 | 14
82 | COC(=O)COc1ccc(S(=O)(=O)NCC2CCCO2)cc1Cl (centres unmarked) | -11.6
83 | O=C(Cc1ccccc1)Nc1nc(-c2cccc([N+](=O)[O-])c2)cs1 | 9.32
84 | CNC(=O)C1CC(=O)N(CCc2ccc(C)cc2)C1 (centres unmarked) | 15.5
85 | N=c1c2c(-c3ccccc3)c(-c3ccccc3)n(Cc3ccco3)c2ncn1CCO | -71
86 | COCCCN(CC(=O)NCc1ccccc1)S(=O)(=O)c1ccc(C)cc1 | -21.9
87 | O=C(O)Cn1c(=S)sc2ccccc21 | 11.4
88 | Cc1nc2ccc(NC(=O)NC(=O)c3c(Cl)cccc3Cl)cc2o1 | 10.6
89 | CC(C)OC(=O)COc1ccc(-c2ccccc2)cc1 | 7.92
